Reference: PubChem BioAssay AID651820 (National Center for Advancing Translational Sciences (NCATS), 2012)
In all, about 340,000 compounds went through this assay and about 12,000 (3.5%) were called active. Inconclusive results, whose numbers are uncertain, are shown with a selection of clear calls. Calls follow the shape of the dose curve; as a rule, active = well fitted inhibition curve with a large enough effect; inconclusive = small, poorly fitted or top-dose-only effect, or another doubt; inactive = no such curve, though single readings can be large or run the other way. Potencies of inconclusive entries are left out as doubtful fits.

Test: qHTS Assay for Inhibitors of Hepatitis C Virus (HCV)
Conditions: Huh7.5.1 HCVcc-Cre (HCVcc is cell-culture hepatitis C virus) infection, luciferase reporter, 44 h; activity change, negative = inhibition: at 41.8 µM (top of the series) unless noted
In short: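 1,000 cells/well; 4 h culture; + compound; + HCVcc-Cre (~0.5 moi); 44 h; luciferase substrate, RT 15 min; read 15 sec.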
% is scaled to controls: 0 for no effect and ±100 for the full control effect; potency is read from the fitted curve at half-maximal effect; tags tell the direction and shape of the fitted curve.

Row | Structure (SMILES) | Potency | activity change, negative = inhibition
1 | COc1ccc(CN2CCCC(C(=O)c3cccc(OC(C)C)c3)C2)cc1Cn1cccn1 (centres undefined) | active: 11.2 µM | 
2 | CC(C)(C)c1ccc(OCC(=O)NCC(c2cccs2)N2CCOCC2)cc1 (centres undefined) | inconclusive [inhibitor, single point] | 
3 | O=C(Nc1ccc(Br)cn1)c1cccc(S(=O)(=O)N2CCCC2)c1 | inconclusive [inhibitor, single point] | 
4 | CCCC1SCC(C)(C)NC1=O (centres undefined) |  | inactive: 15.2%
5 | Cc1c(N=NC2=C(O)CC(C)(C)CC2=O)c(=O)n(-c2ccccc2)n1C |  | inactive: 6.37%
6 | Cc1ccc(-c2nc(CSCC(=O)N3CCCC3)c(C)o2)cc1 | inconclusive [inhibitor, partial curve] | 
7 | CC(=O)N1CC(C)Sc2ccc(S(=O)(=O)NC3CCCCC3)cc21 (centres undefined) | inconclusive [inhibitor, single point] | 
8 | COc1ccc(/C=C/C(=O)O/N=C(\N)c2ccccn2)cc1OC |  | inactive: -11.6%
9 | c1ccc(CSc2ncccn2)cc1 |  | inactive: 0.322%
10 | COc1ccccc1C1c2ccc3ccccc3c2Oc2ncn(CCN(C)C)c(=N)c21 (centres undefined) | active: 12.6 µM | 
11 | O=C(NCCN1CCOCC1)c1ccc2c(c1)N(Cc1ccccc1F)C(=O)c1ccccc1S2 | inconclusive [inhibitor, single point] | 
12 | COc1ccc(Cc2nc3ccccc3n2C)cc1 |  | inactive: 13%
13 | C=CC[C@H](CC(=O)NCCO)C(=O)N[C@H](COC(=O)[C@@H](CC=C)Cc1ccc(F)cc1)Cc1ccccc1 | inconclusive [inhibitor, full curve, poor fit] | 
14 | O=C(Cn1cc(C(=O)C2CC2)c2ccccc21)Nc1ccccc1Cl | inconclusive [inhibitor, single point] | 
15 | CCOC(=O)c1c(C)[nH]c(N=Nc2ccccc2)c1C | inconclusive [inhibitor, single point] | 
16 | Cc1nn(Cc2ccccc2Cl)c(C)c1NC(=O)CCCn1nc(C)c([N+](=O)[O-])c1C | inconclusive [inhibitor, full curve] | 
17 | COc1ccc(C(O)(CCC(C)C)C(CN2CCOCC2)c2ccc(Cl)cc2)cc1 (centres undefined) | inconclusive [inhibitor, single point] | 
18 | Cc1ccccc1-n1nnnc1SCC(=O)c1c(N)n(C)c(=O)n(C)c1=O |  | inactive: 10.3%
19 | OC(CNCCc1ccc(C(F)(F)F)cc1)COC(c1ccccc1)c1ccccc1 (centres undefined) | inconclusive [inhibitor, single point] | 
20 | CN(C)S(=O)(=O)c1cccc(NC(=O)CN2C(=O)NC(Cc3c[nH]c4ccccc34)C2=O)c1 (centres undefined) | active: 1.58 µM | 
21 | CC(C)(C)c1ccc(C(=O)NC(=S)N2CCOCC2)cc1 |  | inactive: 10.7%
22 | COc1cc2c3c(c1)C1(C(=O)N3C(C)(C)C=C2C)C(C#N)=C(N)Oc2cc(C)oc(=O)c21 (centres undefined) |  | inactive: -15.9%

Row | Structure (SMILES) | Potency | activity change, negative = inhibition
23 | CC1Cc2nc(SCC(=O)N3CCN(c4ccccc4)CC3)n(C)c(=O)c2S1 (centres undefined) | inconclusive [inhibitor, partial curve, poor fit] | 
24 | COc1cc(NC(=O)c2ccc(S(=O)(=O)N(C)c3ccccc3OC)cc2)cc(OC)c1 | active: 11.2 µM | 
25 | COc1ccc(-c2csc(NC(C)c3nc4cc(C(F)(F)F)ccc4n3CCOCCO)n2)cc1 (centres undefined) | active: 8.91 µM | 
26 | COc1ccc(CCNC(=O)CCn2c(=O)c3cccn3c3ccc(F)cc32)c(OC)c1OC | inconclusive [inhibitor, full curve] | 
27 | Cc1cccc(NC(=O)c2ccc(S(=O)(=O)N3CCCCC3C)cc2)n1 (centres undefined) | inconclusive [inhibitor, single point] | 
28 | COc1ccccc1-c1nnc(SCC(=O)Nc2c(Cl)cccc2Cl)o1 | inconclusive [inhibitor, single point] | 
29 | CC(C)(C)OC(=O)N1CCN(C(=O)c2cccnc2Cl)CC1 |  | inactive: 9.51%
30 | COc1ccc(CCn2c(C)cc(C(=O)CN3C(=O)C(=O)N(Cc4ccco4)C3=O)c2C)cc1 | inconclusive [inhibitor, single point] | 
31 | c1ccc(C(OCCN2CCN(c3ncccn3)CC2)c2ccccc2)cc1 | inconclusive [inhibitor, single point] | 
32 | O=S1(=O)CCC(NC(=S)N2CCOCC2)C1 (centres undefined) | inconclusive [inhibitor, full curve, poor fit] | 
33 | COc1ccc(CC(=O)NCc2nnc(SCc3ccc(C)cc3)n2C)cc1 |  | inactive: -27.7%
34 | O=C(NNC(=S)NC(=O)c1cn(-c2ccccc2)nc1-c1ccccc1)c1ccncc1 | inconclusive [inhibitor, single point] | 
35 | CC(=O)C[C@@H](O)CC(=O)[C@@H]1OC(=O)[C@H](C)CCCCc2ccccc21 | inconclusive [inhibitor, single point] | 
36 | CCCN(C(=O)CCl)C1=CCCCC1 | active: 12.6 µM | 
37 | CCN(CC)CCCC(C)n1c2nc(=O)[nH]c(=O)c-2nc2cc(Cl)ccc21 (centres undefined) | inconclusive [inhibitor, single point] | 
38 | Cc1cc(C(=O)CSc2nc(N)cc(N)n2)c(C)n1CCc1ccc(F)cc1 | inconclusive [inhibitor, partial curve] | 
39 | COC(=O)c1sccc1-c1ccc(/C=N/OC(=O)c2cccs2)o1 | inconclusive [inhibitor, single point] | 
40 | COc1ccc(N=C2S/C(=C\c3ccc(OC(C)C(=O)O)c(OC)c3)C(=O)N2CCc2c[nH]c3ccccc23)cc1 (centres undefined) | inconclusive [inhibitor, single point] | 
41 | CN(c1cccc(NC(=O)CN(c2ccc(C34CC5CC(CC(C5)C3)C4)cc2)S(C)(=O)=O)c1)S(C)(=O)=O | inconclusive [inhibitor, single point] | 
42 | COc1c(Cl)cc(Cl)cc1C(=O)n1nc(C)cc1C |  | inactive: 8.32%
43 | Fc1cccc(-n2ncc(-c3nnnn3-c3ccccc3)c2C(F)(F)F)c1 | inconclusive [inhibitor, single point] | 
44 | COc1ccc(C2CC(C)=C(C#N)S(=O)(=O)C2C#N)cc1 (centres undefined) |  | inactive: -28.1%
